Laboratory results from the supplement of paper PMC7125110.
± gives the standard error. Variants at the background level are over-represented here.

B1: glmS ribozyme (parent)
chain: AUAAAAGCGCCAGAACUACAGAAAUGUAGUUGACGAGGAGGAGGUUUAUCGAAUUUUCGGCGGAUGCCUCCAAA

What was measured:
Conditions in all cases: with glucosamine-6-phosphate
[1] = variants of: B1; assay: self-cleavage kobs at 640 uM GlcN6P; higher = faster cleavage; RNA array
Procedure, shortened: (§1)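 Sequenced MiSeq chips were the platform: E. coli RNA polymerase transcribed barcoded ribozyme variants on them in situ, and a hybridised Cy3 probe tracked these at 37 °C. After glucosamine-6-phosphate (40 μM to 10 mM) in HEPES/KCl/Mg(OAc)2 buffer was flowed in, tiles were imaged over ~14 h. Signals normalised to baseline and to non-cleaving reference variants were reduced to per-tile medians and fit to one- or two-exponential decays to obtain kobs. kcat and KM were derived through weighted Michaelis–Menten fits across concentrations.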

[2] = variants of: B1; assay: self-cleavage kobs at 160 uM GlcN6P; higher = faster cleavage; RNA array
Procedure, shortened: as §1

[3] = variants of: B1; assay: self-cleavage kobs at 2500 uM GlcN6P; higher = faster cleavage; RNA array
Procedure, shortened: as §1

[4] = variants of: B1; assay: self-cleavage kobs at 10000 uM GlcN6P; higher = faster cleavage; RNA array
Procedure, shortened: as §1

A15U G63C
self-cleavage kobs at 640 uM GlcN6P [1]: < 1e-05 s⁻¹
self-cleavage kobs at 160 uM GlcN6P [2]: < 1e-05 s⁻¹
self-cleavage kobs at 2500 uM GlcN6P [3]: < 1e-05 s⁻¹
self-cleavage kobs at 10000 uM GlcN6P [4]: < 1e-05 s⁻¹

G13U A14C G32A U46C G63A C68U U69G C71U
self-cleavage kobs at 640 uM GlcN6P [1]: < 1e-05 s⁻¹
self-cleavage kobs at 160 uM GlcN6P [2]: < 1e-05 s⁻¹

C16A G32C U47A U56C
self-cleavage kobs at 640 uM GlcN6P [1]: < 1e-05 s⁻¹

C16A U54C G59U
self-cleavage kobs at 640 uM GlcN6P [1]: < 1e-05 s⁻¹

A15U G66U
self-cleavage kobs at 640 uM GlcN6P [1]: 6.31e-05 ± 9.8e-06 s⁻¹

G13U A64C
self-cleavage kobs at 640 uM GlcN6P [1]: < 1e-05 s⁻¹

A15C A39C C70G
self-cleavage kobs at 640 uM GlcN6P [1]: < 1e-05 s⁻¹

A15C A33U G60A
self-cleavage kobs at 640 uM GlcN6P [1]: < 1e-05 s⁻¹

A15G A36G C67G
self-cleavage kobs at 640 uM GlcN6P [1]: < 1e-05 s⁻¹

A14C C50U U57C G59C
self-cleavage kobs at 640 uM GlcN6P [1]: < 1e-05 s⁻¹
self-cleavage kobs at 160 uM GlcN6P [2]: < 1e-05 s⁻¹
self-cleavage kobs at 2500 uM GlcN6P [3]: < 1e-05 s⁻¹

A14G G29A G51U A52C
self-cleavage kobs at 640 uM GlcN6P [1]: < 1e-05 s⁻¹

A15G A39C A53G G62A
self-cleavage kobs at 640 uM GlcN6P [1]: < 1e-05 s⁻¹

A14G U47A G66C
self-cleavage kobs at 640 uM GlcN6P [1]: 0.000364 ± 0.00011 s⁻¹
self-cleavage kobs at 2500 uM GlcN6P [3]: 0.00101 ± 0.00023 s⁻¹
self-cleavage kobs at 10000 uM GlcN6P [4]: 0.00125 ± 0.00022 s⁻¹

A14C A42C U55C U57A
self-cleavage kobs at 640 uM GlcN6P [1]: < 1e-05 s⁻¹

A14U G60A
self-cleavage kobs at 640 uM GlcN6P [1]: < 1e-05 s⁻¹
self-cleavage kobs at 160 uM GlcN6P [2]: < 1e-05 s⁻¹

A15U G51U
self-cleavage kobs at 640 uM GlcN6P [1]: < 1e-05 s⁻¹
self-cleavage kobs at 160 uM GlcN6P [2]: < 1e-05 s⁻¹
self-cleavage kobs at 2500 uM GlcN6P [3]: < 1e-05 s⁻¹
self-cleavage kobs at 10000 uM GlcN6P [4]: < 1e-05 s⁻¹

G13C G35U C61U
self-cleavage kobs at 640 uM GlcN6P [1]: < 1e-05 s⁻¹

A14C G62U
self-cleavage kobs at 640 uM GlcN6P [1]: < 1e-05 s⁻¹
self-cleavage kobs at 160 uM GlcN6P [2]: < 1e-05 s⁻¹
self-cleavage kobs at 2500 uM GlcN6P [3]: < 1e-05 s⁻¹
self-cleavage kobs at 10000 uM GlcN6P [4]: < 1e-05 s⁻¹

G13C A39C C61A C70U
self-cleavage kobs at 640 uM GlcN6P [1]: < 1e-05 s⁻¹

A14G G38U U56C
self-cleavage kobs at 640 uM GlcN6P [1]: < 1e-05 s⁻¹
self-cleavage kobs at 10000 uM GlcN6P [4]: < 1e-05 s⁻¹

G13U G29C A33C A39G U46C
self-cleavage kobs at 640 uM GlcN6P [1]: < 1e-05 s⁻¹
self-cleavage kobs at 2500 uM GlcN6P [3]: < 1e-05 s⁻¹

A15G U45C U57C
self-cleavage kobs at 640 uM GlcN6P [1]: < 1e-05 s⁻¹

A15U G40C C58A C68U C71A
self-cleavage kobs at 640 uM GlcN6P [1]: < 1e-05 s⁻¹

A14U G35U G44U
self-cleavage kobs at 640 uM GlcN6P [1]: < 1e-05 s⁻¹

C16G A33U G35U G41A U45G A48G
self-cleavage kobs at 640 uM GlcN6P [1]: < 1e-05 s⁻¹
self-cleavage kobs at 2500 uM GlcN6P [3]: < 1e-05 s⁻¹

A14C U56G U57A C71A
self-cleavage kobs at 640 uM GlcN6P [1]: 8.95e-05 ± 2.3e-05 s⁻¹
self-cleavage kobs at 2500 uM GlcN6P [3]: 5.04e-05 ± 2e-05 s⁻¹

C16G A39G A64C
self-cleavage kobs at 640 uM GlcN6P [1]: < 1e-05 s⁻¹

G13A G44C U49A
self-cleavage kobs at 640 uM GlcN6P [1]: < 1e-05 s⁻¹

A15C G35A U65G
self-cleavage kobs at 640 uM GlcN6P [1]: < 1e-05 s⁻¹
self-cleavage kobs at 2500 uM GlcN6P [3]: < 1e-05 s⁻¹

A14G G35U G37C U47C
self-cleavage kobs at 640 uM GlcN6P [1]: < 1e-05 s⁻¹

A14U G43A
self-cleavage kobs at 640 uM GlcN6P [1]: < 1e-05 s⁻¹

A14U G41U
self-cleavage kobs at 640 uM GlcN6P [1]: 0.000109 ± 1.4e-05 s⁻¹
self-cleavage kobs at 160 uM GlcN6P [2]: 4.48e-05 ± 7.9e-06 s⁻¹
self-cleavage kobs at 2500 uM GlcN6P [3]: 0.000292 ± 5.4e-05 s⁻¹
self-cleavage kobs at 10000 uM GlcN6P [4]: 0.000271 ± 3.1e-05 s⁻¹

C16G U46C U49C G60C C70A
self-cleavage kobs at 640 uM GlcN6P [1]: < 1e-05 s⁻¹

C16G G29U G44U C61G
self-cleavage kobs at 640 uM GlcN6P [1]: < 1e-05 s⁻¹
self-cleavage kobs at 2500 uM GlcN6P [3]: < 1e-05 s⁻¹

A14U U47C C58G C68G
self-cleavage kobs at 640 uM GlcN6P [1]: 5.55e-05 ± 1.6e-05 s⁻¹

C16A U17C G29C U31A A39C G63C C71G
self-cleavage kobs at 640 uM GlcN6P [1]: < 1e-05 s⁻¹
self-cleavage kobs at 160 uM GlcN6P [2]: < 1e-05 s⁻¹

G13A G59A G62A
self-cleavage kobs at 640 uM GlcN6P [1]: < 1e-05 s⁻¹

A14U A36C U47C
self-cleavage kobs at 640 uM GlcN6P [1]: < 1e-05 s⁻¹

A15U A33G C61G
self-cleavage kobs at 640 uM GlcN6P [1]: < 1e-05 s⁻¹
self-cleavage kobs at 2500 uM GlcN6P [3]: < 1e-05 s⁻¹
self-cleavage kobs at 10000 uM GlcN6P [4]: < 1e-05 s⁻¹

C16A G37C G59C
self-cleavage kobs at 640 uM GlcN6P [1]: < 1e-05 s⁻¹
self-cleavage kobs at 160 uM GlcN6P [2]: < 1e-05 s⁻¹

G13U U31G A48G A52U
self-cleavage kobs at 640 uM GlcN6P [1]: < 1e-05 s⁻¹

A14C G37U A39U
self-cleavage kobs at 640 uM GlcN6P [1]: < 1e-05 s⁻¹

A15C A36C G41U
self-cleavage kobs at 640 uM GlcN6P [1]: < 1e-05 s⁻¹

A14G G29C A42C C71G
self-cleavage kobs at 640 uM GlcN6P [1]: < 1e-05 s⁻¹
self-cleavage kobs at 160 uM GlcN6P [2]: < 1e-05 s⁻¹
self-cleavage kobs at 2500 uM GlcN6P [3]: < 1e-05 s⁻¹

G13C A14U A42U A64G
self-cleavage kobs at 640 uM GlcN6P [1]: < 1e-05 s⁻¹

A15C C34U
self-cleavage kobs at 640 uM GlcN6P [1]: < 1e-05 s⁻¹
self-cleavage kobs at 160 uM GlcN6P [2]: < 1e-05 s⁻¹
self-cleavage kobs at 2500 uM GlcN6P [3]: < 1e-05 s⁻¹
self-cleavage kobs at 10000 uM GlcN6P [4]: < 1e-05 s⁻¹

G13C A14C G32U U69C
self-cleavage kobs at 640 uM GlcN6P [1]: 8.31e-05 ± 2.1e-05 s⁻¹
self-cleavage kobs at 2500 uM GlcN6P [3]: 7.03e-05 ± 2e-05 s⁻¹

G13U C34G A64U
self-cleavage kobs at 640 uM GlcN6P [1]: < 1e-05 s⁻¹

A15G U30A C67A C70U
self-cleavage kobs at 640 uM GlcN6P [1]: 0.000654 ± 0.00016 s⁻¹
self-cleavage kobs at 2500 uM GlcN6P [3]: 9.99e-05 ± 4.6e-05 s⁻¹
self-cleavage kobs at 10000 uM GlcN6P [4]: 0.00115 ± 0.00026 s⁻¹

G13U G40C G60A
self-cleavage kobs at 640 uM GlcN6P [1]: < 1e-05 s⁻¹
self-cleavage kobs at 2500 uM GlcN6P [3]: < 1e-05 s⁻¹

A15C G40A G43A
self-cleavage kobs at 640 uM GlcN6P [1]: < 1e-05 s⁻¹

A15C A33C A53C
self-cleavage kobs at 640 uM GlcN6P [1]: < 1e-05 s⁻¹
self-cleavage kobs at 10000 uM GlcN6P [4]: < 1e-05 s⁻¹

C16G U30A
self-cleavage kobs at 640 uM GlcN6P [1]: 0.00012 ± 2.3e-05 s⁻¹
self-cleavage kobs at 160 uM GlcN6P [2]: 3.9e-05 ± 1.2e-05 s⁻¹
self-cleavage kobs at 2500 uM GlcN6P [3]: 0.000313 ± 6.1e-05 s⁻¹
self-cleavage kobs at 10000 uM GlcN6P [4]: 0.000372 ± 9.2e-05 s⁻¹

A15C G32C
self-cleavage kobs at 640 uM GlcN6P [1]: 3.08e-05 ± 1e-05 s⁻¹
self-cleavage kobs at 2500 uM GlcN6P [3]: 7.51e-05 ± 2e-05 s⁻¹
self-cleavage kobs at 10000 uM GlcN6P [4]: 0.000138 ± 1.7e-05 s⁻¹

C16A G51C
self-cleavage kobs at 640 uM GlcN6P [1]: < 1e-05 s⁻¹
self-cleavage kobs at 160 uM GlcN6P [2]: < 1e-05 s⁻¹
self-cleavage kobs at 2500 uM GlcN6P [3]: < 1e-05 s⁻¹
self-cleavage kobs at 10000 uM GlcN6P [4]: < 1e-05 s⁻¹

G13U A33U G35U
self-cleavage kobs at 640 uM GlcN6P [1]: < 1e-05 s⁻¹

A15G G51C G59A
self-cleavage kobs at 640 uM GlcN6P [1]: < 1e-05 s⁻¹
self-cleavage kobs at 160 uM GlcN6P [2]: < 1e-05 s⁻¹
self-cleavage kobs at 2500 uM GlcN6P [3]: < 1e-05 s⁻¹

A14C G37C U57G G60A
self-cleavage kobs at 640 uM GlcN6P [1]: < 1e-05 s⁻¹

A15G A36U G41U C70U
self-cleavage kobs at 640 uM GlcN6P [1]: < 1e-05 s⁻¹
self-cleavage kobs at 2500 uM GlcN6P [3]: < 1e-05 s⁻¹

A14G G32A A33C C34G G43U U47C
self-cleavage kobs at 640 uM GlcN6P [1]: < 1e-05 s⁻¹
self-cleavage kobs at 160 uM GlcN6P [2]: < 1e-05 s⁻¹
self-cleavage kobs at 2500 uM GlcN6P [3]: < 1e-05 s⁻¹

A15U C68G C70A
self-cleavage kobs at 640 uM GlcN6P [1]: < 1e-05 s⁻¹
self-cleavage kobs at 10000 uM GlcN6P [4]: < 1e-05 s⁻¹

A15G C16A G32U G38U
self-cleavage kobs at 640 uM GlcN6P [1]: < 1e-05 s⁻¹
